The record followed here is the RNAGym collection of RNA variant scans (doi:10.7554/elife.90254).

The chains are these.
B1: OR4K15 (parent)
chain: GUUAACGGUCAUAGGCCAUGGAAACUAGGAGCACCAUUUCGCUGCCAGUGAAGAAAUGAACAAAGAAAAUCUGGGCCAGGCAGGCAUCAAAAGAAAUAGUCUUGCGCUCAACCAGAAAGUCUGUAAUCAUUUUAAGGGUA

The source gives no read counts; variants with many changes may rest on few reads.

This data set covers variants of B1. Description: self-cleavage, relative activity (ratio to wild type); higher = more cleavage; in vitro, sequencing; the parent is a self-cleaving ribozyme.
On to U124C U131A G137C, for which the self-cleavage is 1.2. A125G U130A U139C: the self-cleavage was determined as 0.51.

For the variant U122G U124C A129G, the self-cleavage was found to be 1.57. Regarding U124C U132C A134G, the self-cleavage was 0.59.

Turning to U122C U131C A135G, the self-cleavage is 0.94. With A126G A129G U133A, the self-cleavage was 0.5.

Take U127C A129G A140C: the self-cleavage came to 0.26. Next, A125G A129G U130C: 0.2.
